# Measured values from the supplement of paper PMC9135407.
# “And” between values parts separate entries of the source, which are not always exact repeats. Equal values may be shown once. Where a name gives a salt, the structure may show the parent alone. Out of some 5,800 compounds screened, about 620 (11%) showed activity.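 The calls were made as follows: active = score above a cut-off or among the top three wells of a plate; in these data no inactive exceeds 0.85.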 The entries are a selection whose mix differs from that of the whole data set.
# Tested on: primary human hepatic stellate cells (donor 1)
# Test: scaled lipid accumulation score (0 = DMSO-like, 1 = nortriptyline-like); higher = stronger HSC inactivation (lipid re-accumulation), active = hit call of the paper
# Details: 48 h
# Description: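 Primary lipid accumulation screen in primary human hepatic stellate cell myofibroblasts (donor 1, passage 8) in 384-well plates. 100 nL of library compound was pin-transferred into 30 µL medium in duplicate, and cells were treated for 48 h. The 'Scaled' score combines distance from plate baseline, toxicity and reproducibility penalties, and is normalised to nortriptyline (positive) and DMSO (negative) controls on each plate. A hit is defined as scaled >0.85 or among the top 3 wells per plate.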
# [1] = library stock concentration: 3.33 mM
# [2] = library stock concentration: 10 mM
# [3] = library stock concentration: 1 mM
# [4] = library stock concentration: 80 uM
# [5] = library stock concentration: 400 uM
# [6] = library stock concentration: 2 mM
smiles,measurement,setting,value
N#C/C(=C\c1ccc(O)c(O)c1)C(=O)NCc1ccccc1,scaled lipid accumulation score,[1],inactive: ≤ 0
same,scaled lipid accumulation score,[2],inactive: 0.001
same,scaled lipid accumulation score,library stock concentration: 17 mM,inactive: ≤ -0.021
C[C@@H]1CN(CCCn2c3ccccc3c3ccccc32)C[C@H](C)N1.Cl.Cl [Rimcazole dihydrochloride],scaled lipid accumulation score,[2],active: 1.34
CC1(C)[C@@H](OC(=O)CCC(=O)O)CC[C@]2(C)[C@H]3C(=O)C=C4[C@@H]5C[C@@](C)(C(=O)O)CC[C@]5(C)CC[C@@]4(C)[C@]3(C)CC[C@@H]12 [Carbenoxolone sodium],scaled lipid accumulation score,[2],inactive: ≤ 0
CC1(C)[C@@H](OC(=O)CCC(=O)O)CC[C@]2(C)[C@H]3C(=O)C=C4[C@@H]5C[C@@](C)(C(=O)O)CC[C@]5(C)CC[C@@]4(C)[C@]3(C)CC[C@@H]12 [Carbenoxolone disodium salt],scaled lipid accumulation score,,inactive: ≤ 0
O=S(c1ccccc1)c1ccc2nnnn2n1 (stereo not given),scaled lipid accumulation score,[2],active: 1.3
C=CCOC(Cn1ccnc1)c1ccc(Cl)cc1Cl (stereo not given) [Enilconazole],scaled lipid accumulation score,,inactive: ≤ 0
same,scaled lipid accumulation score,library stock concentration: 6.7 mM,inactive: ≤ 0
CC(C)CCC[C@@H](C)[C@H]1CC[C@H]2[C@@H]3CC(=O)[C@@]4(O)C[C@@H](O)CC[C@]4(C)[C@H]3CC[C@]12C [5.alpha.-hydroxy-6-keto Cholesterol],scaled lipid accumulation score,[3],inactive: ≤ 0
O=C(/C=C/c1ccc(O)c(O)c1)O[C@@H]1C[C@](O)(C(=O)O)C[C@@H](O)[C@H]1O [Chlorogenic Acid],scaled lipid accumulation score,[3],inactive: ≤ 0
same,scaled lipid accumulation score,[1],inactive: ≤ 0
same,scaled lipid accumulation score,[2],inactive: ≤ 0
O=C(/C=C/c1ccc(O)c(O)c1)O[C@@H]1C[C@](O)(C(=O)O)C[C@@H](O)[C@H]1O [Chlorogenic acid],scaled lipid accumulation score,,inactive: ≤ 0
same,scaled lipid accumulation score,[2],inactive: ≤ 0
O=C(/C=C/c1c(C(=O)O)[nH]c2cc(Cl)cc(Cl)c12)Nc1ccccc1 [Gavestinel],scaled lipid accumulation score,[2],inactive: ≤ -0.001
N#CC(C#N)=C(N)/C(C#N)=C/c1cc(O)c(O)c(O)c1 [Tyrphostin 51],scaled lipid accumulation score,[2],inactive: ≤ 0
Nc1ncnc2nc(-c3ccc(N4CCOCC4)nc3)cc(-c3cccc(Br)c3)c12,scaled lipid accumulation score,[2],active: 0.982
CCCCN(CC)c1nc(C)nc2c1c(C)cn2-c1c(C)cc(C)cc1C,scaled lipid accumulation score,[2],inactive: 0.047
Clc1cccc2c1CN(C1=NCCN1)C2,scaled lipid accumulation score,[2],inactive: ≤ 0
N#Cc1c(NC(=O)c2cccc3ccccc23)sc2c1CCCC2 [JNK Inhibitor IX],scaled lipid accumulation score,[1],inactive: 0.132 and inactive: 0.098
same,scaled lipid accumulation score,[2],inactive: 0.305
C=CC(=O)Nc1cccc(Nc2nc(Nc3ccc(OCCOC)cc3)ncc2F)c1 [Spebrutinib],scaled lipid accumulation score,[4],inactive: ≤ -0.001
same,scaled lipid accumulation score,[5],inactive: ≤ -0.001
same,scaled lipid accumulation score,[6],inactive: ≤ -0.001
same,scaled lipid accumulation score,[2],inactive: 0.202
C=CC(=O)Nc1cccc(Nc2nc(Nc3ccc(OCCOC)cc3)ncc2F)c1,scaled lipid accumulation score,[1],inactive: ≤ -0.009
same,scaled lipid accumulation score,[2],inactive: 0.576
O=C(O)CP(=O)(O)O [Phosphonoacetic acid],scaled lipid accumulation score,[2],inactive: ≤ 0
NC1CCN(c2nc3c(cc2F)c(=O)c(C(=O)O)cn3-c2ccc(F)cc2F)C1 (stereo not given) [Tosufloxacin],scaled lipid accumulation score,library stock concentration: 4.9 mM,inactive: ≤ 0
NC1CCN(c2nc3c(cc2F)c(=O)c(C(=O)O)cn3-c2ccc(F)cc2F)C1 (stereo not given),scaled lipid accumulation score,[2],inactive: 0.275
COC(=O)Nc1nc2cc([S+]([O-])c3ccccc3)ccc2[nH]1 (stereo not given) [Oxfendazole],scaled lipid accumulation score,[1],inactive: ≤ 0
same,scaled lipid accumulation score,library stock concentration: 6.3 mM,inactive: 0.02 and inactive: ≤ 0
same,scaled lipid accumulation score,[2],inactive: ≤ 0 and inactive: ≤ -0.027
C[C@@H]1C(=O)NC2=Nc3cccc(Cl)c3CN21 [Quazinone],scaled lipid accumulation score,[2],inactive: ≤ 0
CCCCC[C@@H](O)/C=C/[C@H]1C(=O)C[C@H](O)[C@@H]1CCCCCCCO [Prostaglandin D1 Alcohol],scaled lipid accumulation score,[3],inactive: ≤ 0
O=C1NCCCc2c1oc1ccc(O)cc21,scaled lipid accumulation score,[4],inactive: ≤ -0.001
same,scaled lipid accumulation score,[5],inactive: ≤ -0.001
same,scaled lipid accumulation score,[6],inactive: ≤ -0.001
same,scaled lipid accumulation score,[2],inactive: ≤ -0.001
CCCCCCCCCCCCC/C=C/[C@@H](O)[C@@H](N)CO [Sphingosine],scaled lipid accumulation score,[3],inactive: ≤ -0.021
COc1ccccc1OCC(O)COC(N)=O (stereo not given) [Methocarbamol],scaled lipid accumulation score,,inactive: ≤ 0
same,scaled lipid accumulation score,[1],inactive: ≤ 0
same,scaled lipid accumulation score,library stock concentration: 8.3 mM,inactive: ≤ -0.001
same,scaled lipid accumulation score,[2],inactive: ≤ 0
